Laboratory results from US7364874B2, “Mediucm for detecting Van A and Van B vancomycin-resistant entercocci and method of using the same” (priority 2001, dated 2008).
Like-named read-outs stand apart in the source and are kept apart here.

Experiments:
Assay in all cases: Test Example 2: vancomycin MIC changes when D-lactic acid (DL-sodium lactate) is added (checkerboard method)
Type in all cases: cell-based
[1] = tested on: Enterococcus faecalis that does not carry vancomycine resistance genes (incl. ATCC29212); details: for vancomycin MIC values: 35° C., 48 hours, E. faecalis, resistance gene None, strain = table row; for MIC: Enterococcus faecalis, ATCC29212, 48 h
[2] = tested on: Enterococcus faecium that does not carry vancomycine resistance genes; details: for vancomycin MIC values: 35° C., 48 hours, E. faecium, resistance gene None, strain = table row; for MIC: Enterococcus faecium, 48 h
[3] = tested on: Enterococcus avium that does not carry vancomycine resistance genes; details: for vancomycin MIC values: 35° C., 48 hours, E. avium, resistance gene None, strain = table row; for MIC: Enterococcus avium, 48 h
[4] = tested on: Van C type, Enterococcus casseliflavus; details: for MIC: Enterococcus casseliflavus, 48 h
[5] = tested on: Van C type, Enterococcus gallinarum; details: for vancomycin MIC values: 35° C., 48 hours, E. gallinarum, vanC, strain = table row; for MIC: Enterococcus gallinarum, GALLINARUM, 48 h
[6] = DL-sodium lactate added 0 mol/l
[7] = DL-sodium lactate added 0.05 mol/l
[8] = DL-sodium lactate added 0.1 mol/l

SMILES: CN[C@H](CC(C)C)C(=O)N[C@H]1C(=O)N[C@@H](CC(N)=O)C(=O)N[C@H]2C(=O)N[C@H]3C(=O)N[C@H](C(=O)N[C@H](C(=O)O)c4cc(O)cc(O)c4-c4cc3ccc4O)[C@H](O)c3ccc(c(Cl)c3)Oc3cc2cc(c3O[C@@H]2O[C@H](CO)[C@@H](O)[C@H](O)[C@H]2O[C@H]2C[C@](C)(N)[C@H](O)[C@H](C)O2)Oc2ccc(cc2Cl)[C@H]1O [vancomycin]
- vancomycin MIC values [1, 6]: 2 µg/mL
- vancomycin MIC values ([1]; DL-sodium lactate added […]): 0.5 µg/mL
- MIC ([1]; read-out: vancomycin MIC values, DL-sodium lactate added 0 mol/l, 35° C., E. faecalis, resistance gene None, strain = table row): 1 µg/mL
- MIC ([1]; read-out: vancomycin MIC values, DL-sodium lactate added 0.05 mol/l, 35° C., E. faecalis, resistance gene None, strain = table row): 2 µg/mL
- MIC ([1]; read-out: vancomycin MIC values, DL-sodium lactate added 0.1 mol/l, 35° C., E. faecalis, resistance gene None, strain = table row): 2 µg/mL
- MIC ([1]; read-out: vancomycin MIC values, DL-sodium lactate added 0.2 mol/l, 35° C., E. faecalis, resistance gene None, strain = table row): 2 µg/mL
- MIC ([1]; read-out: vancomycin MIC values, DL-sodium lactate added 0.4 mol/l, 35° C., E. faecalis, resistance gene None, strain = table row): 2 µg/mL
- MIC ([1]; read-out: vancomycin MIC values, DL-sodium lactate added 0.8 mol/l, 35° C., E. faecalis, resistance gene None, strain = table row): 2 µg/mL
- vancomycin MIC values [2, 7]: 2 µg/mL
- vancomycin MIC values ([2]; DL-sodium lactate added […]): 2 µg/mL
- MIC ([2]; read-out: vancomycin MIC values, DL-sodium lactate added 0 mol/l, 35° C., E. faecium, resistance gene None, strain = table row): 1 µg/mL
- MIC ([2]; read-out: vancomycin MIC values, DL-sodium lactate added 0.05 mol/l, 35° C., E. faecium, resistance gene None, strain = table row): 1 µg/mL
- MIC ([2]; read-out: vancomycin MIC values, DL-sodium lactate added 0.1 mol/l, 35° C., E. faecium, resistance gene None, strain = table row): 2 µg/mL
- MIC ([2]; read-out: vancomycin MIC values, DL-sodium lactate added 0.2 mol/l, 35° C., E. faecium, resistance gene None, strain = table row): 2 µg/mL
- MIC ([2]; read-out: vancomycin MIC values, DL-sodium lactate added 0.4 mol/l, 35° C., E. faecium, resistance gene None, strain = table row): 2 µg/mL
- MIC ([2]; read-out: vancomycin MIC values, DL-sodium lactate added 0.8 mol/l, 35° C., E. faecium, resistance gene None, strain = table row): 2 µg/mL
- MIC ([2]; read-out: vancomycin MIC values, DL-sodium lactate added […], 35° C., E. faecium, resistance gene None, strain = table row): 1 µg/mL
- vancomycin MIC values [3, 6]: 2 µg/mL
- vancomycin MIC values [3, 7]: 2 µg/mL
- vancomycin MIC values [3, 8]: 2 µg/mL
- MIC ([3]; read-out: vancomycin MIC values, DL-sodium lactate added 0 mol/l, 35° C., E. avium, resistance gene None, strain = table row): 1 µg/mL
- MIC ([3]; read-out: vancomycin MIC values, DL-sodium lactate added 0.05 mol/l, 35° C., E. avium, resistance gene None, strain = table row): 1 µg/mL
- MIC ([3]; read-out: vancomycin MIC values, DL-sodium lactate added 0.1 mol/l, 35° C., E. avium, resistance gene None, strain = table row): 1 µg/mL
- MIC ([3]; read-out: vancomycin MIC values, DL-sodium lactate added 0.2 mol/l, 35° C., E. avium, resistance gene None, strain = table row): 2 µg/mL
- MIC ([3]; read-out: vancomycin MIC values, DL-sodium lactate added 0.4 mol/l, 35° C., E. avium, resistance gene None, strain = table row): 2 µg/mL
- MIC ([3]; read-out: vancomycin MIC values, DL-sodium lactate added 0.8 mol/l, 35° C., E. avium, resistance gene None, strain = table row): 2 µg/mL
- MIC ([3]; read-out: vancomycin MIC values, DL-sodium lactate added […], 35° C., E. avium, resistance gene None, strain = table row): 1 µg/mL
- vancomycin MIC values ([4]; DL-sodium lactate added 0.1 mol/l, 35° C., 48 hours, E. casseliflavus, vanC, strain = table row): 16 µg/mL
- MIC ([4]; read-out: vancomycin MIC values, DL-sodium lactate added 0 mol/l, 35° C., E. casseliflavus, vanC, strain = table row): 8 µg/mL
- MIC ([4]; read-out: vancomycin MIC values, DL-sodium lactate added 0.05 mol/l, 35° C., E. casseliflavus, vanC, strain = table row): 8 µg/mL
- MIC ([4]; read-out: vancomycin MIC values, DL-sodium lactate added 0.1 mol/l, 35° C., E. casseliflavus, vanC, strain = table row): 8 µg/mL
- MIC ([4]; read-out: vancomycin MIC values, DL-sodium lactate added 0.2 mol/l, 35° C., E. casseliflavus, vanC, strain = table row): 16 µg/mL
- MIC ([4]; read-out: vancomycin MIC values, DL-sodium lactate added 0.4 mol/l, 35° C., E. casseliflavus, vanC, strain = table row): 16 µg/mL
- MIC ([4]; read-out: vancomycin MIC values, DL-sodium lactate added 0.8 mol/l, 35° C., E. casseliflavus, vanC, strain = table row): 16 µg/mL
- MIC ([4]; read-out: vancomycin MIC values, DL-sodium lactate added […], 35° C., E. casseliflavus, vanC, strain = table row): 8 µg/mL
- vancomycin MIC values [5, 6]: 16 µg/mL
- vancomycin MIC values [5, 7]: 16 µg/mL
- vancomycin MIC values [5, 8]: 16 µg/mL
- MIC ([5]; read-out: vancomycin MIC values, DL-sodium lactate added 0 mol/l, 35° C., E. gallinarum, vanC, strain = table row): 8 µg/mL
- MIC ([5]; read-out: vancomycin MIC values, DL-sodium lactate added 0.05 mol/l, 35° C., E. gallinarum, vanC, strain = table row): 8 µg/mL
- MIC ([5]; read-out: vancomycin MIC values, DL-sodium lactate added 0.1 mol/l, 35° C., E. gallinarum, vanC, strain = table row): 8 µg/mL
- MIC ([5]; read-out: vancomycin MIC values, DL-sodium lactate added 0.2 mol/l, 35° C., E. gallinarum, vanC, strain = table row): 16 µg/mL
- MIC ([5]; read-out: vancomycin MIC values, DL-sodium lactate added 0.4 mol/l, 35° C., E. gallinarum, vanC, strain = table row): 16 µg/mL
- MIC ([5]; read-out: vancomycin MIC values, DL-sodium lactate added 0.8 mol/l, 35° C., E. gallinarum, vanC, strain = table row): 16 µg/mL
- MIC ([5]; read-out: vancomycin MIC values, DL-sodium lactate added […], 35° C., E. gallinarum, vanC, strain = table row): 8 µg/mL
